# Some of the results follow.
# B1: MpL2 (Macrolepiota procera) (protein)
# chain: MSTQVSSGQTYKITNVKAGTVIRLSGEDNKSIIGYPYHSGKNQQWTFNWTGKAWTLRSASSGSYLGIEGTPADGTRLVAVNDPFEWHIWRDEANENAFRIFVPFTNYNLDLSGYGDTTPGTPVQLWWTWEGLHQTWTIDRP
# Key:
# Experiment in all cases: glycan array binding signal (z-score within array); higher = stronger binding
# Conditions in all cases: glycan notation: IUPAC condensed, linker removed; mutation: D22R
# [1] = target: Fuc(a1-2)Gal6S(b1-3)GlcNAc
# Method in brief: (§1)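 Negative Z-scores can be read as non-binding. The Z-score is calculated within each array and then averaged across arrays of one protein sequence at different concentrations or buffers and across linkers. Arrays, 3228 in all, were curated from the Consortium for Functional Glycomics database and kept only where the protein sequence was available.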
# [2] = target: Fuc(a1-2)Gal6S(b1-3)GlcNAc6S
# Method in brief: as §1
# Fuc(a1-2)Gal6S(b1-4)Glc = target: Fuc(a1-2)Gal6S(b1-4)Glc
# Method in brief: as §1
# [3] = target: Fuc(a1-2)Gal6S(b1-4)Glc6S
# Method in brief: as §1
# Fuc(a1-2)[Gal(a1-3)]Gal = target: Fuc(a1-2)[Gal(a1-3)]Gal
# Method in brief: as §1
# [4] = target: Fuc(a1-2)[Gal(a1-3)]Gal(b1-3)GalNAc
# Method in brief: as §1
# [5] = target: Fuc(a1-2)[Gal(a1-3)]Gal(b1-3)GalNAc(b1-3)Gal(a1-4)Gal(b1-4)Glc
# Method in brief: as §1
# [6] = target: Fuc(a1-2)[Gal(a1-3)]Gal(b1-3)GlcNAc
# Method in brief: as §1
# [7] = target: Fuc(a1-2)[Gal(a1-3)]Gal(b1-3)GlcNAc(b1-2)Man(a1-3)[Fuc(a1-2)[Gal(a1-3)]Gal(b1-3)GlcNAc(b1-2)Man(a1-6)]Man(b1-4)GlcNAc(b1-4)GlcNAc
# Method in brief: as §1
# [8] = target: Fuc(a1-2)[Gal(a1-3)]Gal(b1-3)GlcNAc(b1-2)Man(a1-3)[Fuc(a1-2)[Gal(a1-3)]Gal(b1-3)GlcNAc(b1-2)Man(a1-6)]Man(b1-4)GlcNAc(b1-4)[Fuc(a1-6)]GlcNAc
# Method in brief: as §1
# [9] = target: Fuc(a1-2)[Gal(a1-3)]Gal(b1-3)GlcNAc(b1-3)GalNAc
# Method in brief: as §1
# [10] = target: Fuc(a1-2)[Gal(a1-3)]Gal(b1-3)GlcNAc(b1-6)GalNAc
# Method in brief: as §1
# [11] = target: Fuc(a1-2)[Gal(a1-3)]Gal(b1-4)Glc
# Method in brief: as §1
# [12] = target: Fuc(a1-2)[Gal(a1-3)]Gal(b1-4)GlcNAc
# Method in brief: as §1
# [13] = target: Fuc(a1-2)[Gal(a1-3)]Gal(b1-4)GlcNAc(b1-2)Man
# Method in brief: as §1
# [14] = target: Fuc(a1-2)[Gal(a1-3)]Gal(b1-4)GlcNAc(b1-2)Man(a1-3)[Fuc(a1-2)[Gal(a1-3)]Gal(b1-4)GlcNAc(b1-2)Man(a1-6)]Man(b1-4)GlcNAc(b1-4)GlcNAc
# Method in brief: as §1
# [15] = target: Fuc(a1-2)[Gal(a1-3)]Gal(b1-4)GlcNAc(b1-2)Man(a1-3)[Fuc(a1-2)[Gal(a1-3)]Gal(b1-4)GlcNAc(b1-2)Man(a1-6)]Man(b1-4)GlcNAc(b1-4)[Fuc(a1-6)]GlcNAc
# Method in brief: as §1
# [16] = target: Fuc(a1-2)[Gal(a1-3)]Gal(b1-4)GlcNAc(b1-3)GalNAc
# Method in brief: as §1
# [17] = target: Fuc(a1-2)[Gal(a1-3)]Gal(b1-4)GlcNAc(b1-3)[Fuc(a1-2)[Gal(a1-3)]Gal(b1-4)GlcNAc(b1-6)]GalNAc
# Method in brief: as §1
# [18] = target: Fuc(a1-2)[Gal(a1-3)]Gal(b1-4)GlcNAc(b1-6)GalNAc
# Method in brief: as §1
# [19] = target: Fuc(a1-2)[Gal(a1-3)]Gal(b1-4)[Fuc(a1-3)]Glc
# Method in brief: as §1
# [20] = target: Fuc(a1-2)[Gal(a1-3)]Gal(b1-4)[Fuc(a1-3)]GlcNAc
# Method in brief: as §1
# [21] = target: Fuc(a1-2)[Gal(a1-3)]Gal(b1-4)[Fuc(a1-3)]GlcNAc(b1-3)GalNAc
# Method in brief: as §1
# [22] = target: Fuc(a1-2)[Gal(a1-4)]Gal(b1-4)GlcNAc
# Method in brief: as §1
# [23] = target: Fuc(a1-2)[GalNAc(a1-3)]Gal
# Method in brief: as §1
# [24] = target: Fuc(a1-2)[GalNAc(a1-3)]Gal(b1-3)GalNAc(a1-3)[Fuc(a1-2)]Gal(b1-4)GlcNAc
# Method in brief: as §1
# [25] = target: Fuc(a1-2)[GalNAc(a1-3)]Gal(b1-3)GalNAc(b1-3)Gal(a1-4)Gal(b1-4)Glc
# Method in brief: as §1
# [26] = target: Fuc(a1-2)[GalNAc(a1-3)]Gal(b1-3)GlcNAc
# Method in brief: as §1
# [27] = target: Fuc(a1-2)[GalNAc(a1-3)]Gal(b1-3)GlcNAc(b1-2)Man(a1-3)[Fuc(a1-2)[GalNAc(a1-3)]Gal(b1-3)GlcNAc(b1-2)Man(a1-6)]Man(b1-4)GlcNAc(b1-4)GlcNAc
# Method in brief: as §1
# [28] = target: Fuc(a1-2)[GalNAc(a1-3)]Gal(b1-3)GlcNAc(b1-2)Man(a1-3)[Fuc(a1-2)[GalNAc(a1-3)]Gal(b1-3)GlcNAc(b1-2)Man(a1-6)]Man(b1-4)GlcNAc(b1-4)[Fuc(a1-6)]GlcNAc
# Method in brief: as §1
# [29] = target: Fuc(a1-2)[GalNAc(a1-3)]Gal(b1-3)GlcNAc(b1-3)GalNAc
# Method in brief: as §1
# [30] = target: Fuc(a1-2)[GalNAc(a1-3)]Gal(b1-3)GlcNAc(b1-6)GalNAc
# Method in brief: as §1
# [31] = target: Fuc(a1-2)[GalNAc(a1-3)]Gal(b1-4)Glc
# Method in brief: as §1
# [32] = target: Fuc(a1-2)[GalNAc(a1-3)]Gal(b1-4)GlcNAc
# Method in brief: as §1
# [33] = target: Fuc(a1-2)[GalNAc(a1-3)]Gal(b1-4)GlcNAc(b1-2)Man
# Method in brief: as §1
# [34] = target: Fuc(a1-2)[GalNAc(a1-3)]Gal(b1-4)GlcNAc(b1-2)Man(a1-3)[Fuc(a1-2)[GalNAc(a1-3)]Gal(b1-4)GlcNAc(b1-2)Man(a1-6)]Man(b1-4)GlcNAc(b1-4)GlcNAc
# Method in brief: as §1
# [35] = target: Fuc(a1-2)[GalNAc(a1-3)]Gal(b1-4)GlcNAc(b1-2)Man(a1-3)[Fuc(a1-2)[GalNAc(a1-3)]Gal(b1-4)GlcNAc(b1-2)Man(a1-6)]Man(b1-4)GlcNAc(b1-4)[Fuc(a1-6)]GlcNAc
# Method in brief: as §1
# [36] = target: Fuc(a1-2)[GalNAc(a1-3)]Gal(b1-4)GlcNAc(b1-3)Gal(b1-4)GlcNAc
# Method in brief: as §1
# [37] = target: Fuc(a1-2)[GalNAc(a1-3)]Gal(b1-4)GlcNAc(b1-3)Gal(b1-4)GlcNAc(b1-3)Gal(b1-4)GlcNAc
# Method in brief: as §1
# [38] = target: Fuc(a1-2)[GalNAc(a1-3)]Gal(b1-4)GlcNAc(b1-3)GalNAc
# Method in brief: as §1
# [39] = target: Fuc(a1-2)[GalNAc(a1-3)]Gal(b1-4)GlcNAc(b1-3)[Fuc(a1-2)[GalNAc(a1-3)]Gal(b1-4)GlcNAc(b1-6)]GalNAc
# Method in brief: as §1
# [40] = target: Fuc(a1-2)[GalNAc(a1-3)]Gal(b1-4)GlcNAc(b1-6)GalNAc
# Method in brief: as §1
# [41] = target: Fuc(a1-2)[GalNAc(a1-3)]Gal(b1-4)[Fuc(a1-3)]GlcNAc
# Method in brief: as §1
# [42] = target: Fuc(a1-2)[GalNAc(a1-3)]Gal(b1-4)[Fuc(a1-3)]GlcNAc(b1-3)GalNAc
# Method in brief: as §1
# [43] = target: Fuc(a1-2)[GalNAc(a1-4)]Gal(b1-4)GlcNAc
# Method in brief: as §1
binder,measurement,setting,value
B1,glycan array binding signal (z-score),[1],-0.339
same,glycan array binding signal (z-score),[2],0.5
same,glycan array binding signal (z-score),Fuc(a1-2)Gal6S(b1-4)Glc,0.081
same,glycan array binding signal (z-score),[3],-0.429
same,glycan array binding signal (z-score),Fuc(a1-2)[Gal(a1-3)]Gal,-0.752
same,glycan array binding signal (z-score),[4],-0.003
same,glycan array binding signal (z-score),[5],-0.48
same,glycan array binding signal (z-score),[6],-0.127
same,glycan array binding signal (z-score),[7],-0.327
same,glycan array binding signal (z-score),[8],-0.205
same,glycan array binding signal (z-score),[9],-0.191
same,glycan array binding signal (z-score),[10],-0.33
same,glycan array binding signal (z-score),[11],0.346
same,glycan array binding signal (z-score),[12],-0.343
same,glycan array binding signal (z-score),[13],-0.047
same,glycan array binding signal (z-score),[14],-0.076
same,glycan array binding signal (z-score),[15],-0.307
same,glycan array binding signal (z-score),[16],0.092
same,glycan array binding signal (z-score),[17],-0.178
same,glycan array binding signal (z-score),[18],0.319
same,glycan array binding signal (z-score),[19],0.174
same,glycan array binding signal (z-score),[20],0.262
same,glycan array binding signal (z-score),[21],0.532
same,glycan array binding signal (z-score),[22],0.005
same,glycan array binding signal (z-score),[23],-0.075
same,glycan array binding signal (z-score),[24],-0.065
same,glycan array binding signal (z-score),[25],-0.533
same,glycan array binding signal (z-score),[26],0.022
same,glycan array binding signal (z-score),[27],-0.536
same,glycan array binding signal (z-score),[28],0.039
same,glycan array binding signal (z-score),[29],0.628
same,glycan array binding signal (z-score),[30],-0.21
same,glycan array binding signal (z-score),[31],-0.092
same,glycan array binding signal (z-score),[32],-0.376
same,glycan array binding signal (z-score),[33],-0.511
same,glycan array binding signal (z-score),[34],0.028
same,glycan array binding signal (z-score),[35],-0.12
same,glycan array binding signal (z-score),[36],-0.256
same,glycan array binding signal (z-score),[37],0.154
same,glycan array binding signal (z-score),[38],-0.523
same,glycan array binding signal (z-score),[39],-0.395
same,glycan array binding signal (z-score),[40],-0.841
same,glycan array binding signal (z-score),[41],-0.415
same,glycan array binding signal (z-score),[42],1.3
same,glycan array binding signal (z-score),[43],-0.694
